Data taken from ChEMBL document CHEMBL4888484, “Replenishing the malaria drug discovery pipeline: Screening and hit evaluation of the MMV Hit Generation Library 1 (HGL1) against asexual blood stage Plasmodium falciparum ,using a nano luciferase reporter read-out” (2022).
Screen size: about 150,000 compounds; about 540 (0.36%) showed an effect of 50% or more. The list shows a part of the results.

These compounds were tested on Plasmodium falciparum (assay: Primary screen in NF54 nanoGlo assay, in single point, at 2uM, 72h; a lower Z score goes with more inhibition). Details: timepoint 72 hour.
Assay type: functional, Erythrocyte

Row | Structure (SMILES) | % Inhibition [%] | Z score
1 | CCC(CO)(CO)NC(=O)c1oc(Br)cc1C | -17 | 2.27
2 | Cc1noc(C)c1CN(C(=O)[C@H](C)Oc1ccc(F)cc1)c1ccccc1 | -4 | 0.42
3 | O=C1CCn2ncc(-c3ccccc3)c2N1 | 1 | -0.1
4 | COc1ccc(OC)c(-n2c(-c3ccccc3)cc(C(=O)N3CCN(Cc4ccccc4)CC3)c2C)c1 | -8 | 1.09
5 | COc1cc2c(cc1-c1nccn1Cc1noc(C(N)=O)n1)OCCCO2 | -11 | 1.12
6 | CC(C)(Cc1ccc(O)cc1)C(=O)N1CCO[C@@]2(CCCOC2)C1 | -15 | 2.2
7 | Cc1cc(C(=O)NCc2ccc(OC[C@H]3CCCO3)cc2)[nH]n1 | -7 | 0.9
8 | C[C@H]1CN(C(=O)c2cccc(Oc3cccc(C(F)(F)F)c3)c2)CCN1S(C)(=O)=O | 0 | 0.03
9 | O=C(Nc1ccccc1Cl)N1CCC(N2CCc3sccc3C2)CC1 | 43 | -3.99
10 | CCc1noc(C)c1C(=O)NC1(C)CCOC1C1CC1 (stereo not drawn) | -9 | 1.46
11 | Cc1cc(C(=O)N2Cc3ccccc3C[C@@H]2C)nc2nc(O)[nH]c(=O)c12 | -9 | 1.64
12 | C[C@@H](CC1CCCCC1)C(=O)NCCc1nccn1C(F)F | 27 | -3.4
13 | Cc1nc(CNC(=O)N[C@H]2CCCN(c3ccccc3F)C2)oc1C | -3 | 0.48
14 | Cc1c(-c2cccc(C(=O)NCCCC(=O)N(C)C)c2)cnn1C | -18 | 1.66
15 | Cc1ccc(NC(=O)NC2(C)CCC2)cc1O[C@H]1CCOC1 | -3 | 0.37
16 | CCOC(=O)N1CC[C@H](NCc2csc(N)n2)C1 | -7 | 0.81
17 | CCO[C@H]1COC[C@@H]1Nc1nc(N)c2cnn(C)c2n1 | -9 | 1.8
18 | CC(C)CNC(=O)COc1ccc2c(c1)[C@H](c1ccccc1)N(Cc1ccccc1)CC2 | -5 | 0.76
19 | Cc1ccc(C(=O)NCc2cn3c(n2)C(=O)N(Cc2ccccc2)CC3)cn1 | -13 | 1.77
20 | COc1cc(N2CC[C@H]3[C@H](CCC(=O)N3CCCO)C2)ncn1 | -7 | 1.39
21 | CCN(Cc1nnc(C2CCC2)n1C)C(C)(C)CO | -2 | 0.39
22 | CCNC(=O)CCC[C@@H]1[C@H]2CCCN3CCC[C@@H](CN1C(=O)c1ccccc1)[C@@H]23 | 2 | -0.32
23 | CC1CCC2(CC1)N=C(c1ccc(Cl)c(Cl)c1)C(=O)N2 (stereo not drawn) | 36 | -1.09
24 | Cc1[nH]nc(C(=O)N[C@H]2CC(C)(C)c3ccccc32)c1C | 6 | -0.97
25 | CCC[C@H]1CN(Cc2ccco2)C[C@@H]1NC(=O)C1(C#N)CCOCC1 | -5 | 0.87
26 | CCCN1C(=O)N[C@@H](Cc2ncnn2-c2ccc3nc(C)sc3c2)C1=O | -5 | 0.61
27 | CCOc1ccc(CN2C[C@H](CO)[C@H](CN3C[C@@H](C)O[C@@H](C)C3)C2)cc1 | 11 | -1.35

Row | Structure (SMILES) | % Inhibition [%] | Z score
28 | O=C(NC1CC1)N1CCC[C@H]1c1nc2ccccc2s1 | -5 | 0.73
29 | CCC1CCC(N2CCC[C@H](C(N)=O)C2)CC1 (stereo partly drawn) | -3 | 0.4
30 | COCCC(CNC(C)c1nccnc1C)NC(=O)OC(C)(C)C (stereo not drawn) | -12 | 1.51
31 | O=C(O)Cn1ccc(NC(=O)CCc2ccc(F)c3c2CCCC3)n1 | 7 | -1.1
32 | C[C@H](NC(=O)N1CCC(C)(C#N)CC1)c1ccc(F)c2ccccc12 | -10 | 1.48
33 | CCN(CC)CCN(CCC(F)(F)F)C(=O)c1ccnc(CO)c1 | -5 | 0.74
34 | CC1(C)COc2c(C(=O)NC3CCCC3(C)CO)cccc21 (stereo not drawn) | 15 | -1.88
35 | O=C1C[C@@H](c2ccccc2)N(C(=O)c2cc(F)ccc2O)CCN1 | 36 | -3.64
36 | CC(=O)Nc1cccc(-c2c(C)n(C)c(=O)n(C)c2=O)c1 | -11 | 1.5
37 | O=C(NCc1ccc2nonc2c1)N[C@H](c1cccnc1)C1CC1 | 9 | -1.38
38 | O=C(N[C@H]1CC[C@H](O)CC1)N1CCC(CCc2ccc(F)cc2F)CC1 | 7 | -0.71
39 | NC(=O)CCC1CCN(c2cc(-c3ccccc3F)nc3ccnn23)CC1 | -2 | 0.23
40 | CCN1C[C@H](NS(=O)(=O)c2cnn(CC)c2)C(C)(C)C1 | -9 | 1.66
41 | CCNc1cc(N2CCC(CCC(=O)NCc3cccc(OC)c3)CC2)ncn1 | 26 | -2.95
42 | O=C(CCc1c[nH]c2ccccc12)N[C@@H]1c2ccccc2C2(CCNCC2)[C@H]1O | -3 | 0.61
43 | O=S(=O)(CC[C@H]1CCCO1)N1CCc2c(F)ccc(F)c2C1 | -6 | 0.85
44 | Cc1cc(C)cc(NC(=O)c2nc(-c3cn(Cc4ccc(F)cc4)nn3)no2)c1 | -2 | 0.47
45 | O=C(Cc1csc(NC(=O)c2ccco2)n1)Nc1nnc[nH]1 | 2 | -0.18
46 | CCN1CCCN(C(=O)c2[nH]nc(C3CC3)c2Cl)CC1=O | 6 | -1.11
47 | C[C@@H](NC(=O)NCC1CCOCC1)c1cccc(Cl)c1 | -6 | 0.92
48 | Cc1noc(-c2ccncc2)c1C(=O)N1CC=C(c2ccccc2)CC1 | -15 | 2.16
49 | COC(=O)c1ccc2c(c1)CCCN2Cc1cccc2ccccc12 | 1 | -0.11
50 | O=C(NC1CCN(c2ccc3nncn3n2)C1)OC1CCOC1 (stereo not drawn) | -14 | 2.2
51 | CCN(CC)[C@@H](Cn1ccnc1-c1nccn1C)c1ccco1 | -10 | 1.43
52 | CCCCOc1ccc(C2=Nc3cc(Br)ccc3NC(c3ccncc3)=N2)cc1 | 2 | -0.24
53 | Cn1nc(CNC(=O)NC2CCCCC2)c2c1CCOC2 | -2 | 0.47
54 | O=C(NCCCCn1ccnc1)NCC1(c2ccccc2)CC1 | 8 | -1.09
